Results as given in the BET-seq Pho4 binding data (Le et al. 2018).
The list shows a part of the results. The energies were worked out here from pooled read counts, against the library average; single values are noisy.

target: T1, Pho4 (S. cerevisiae) (UniProt P07270); assay: relative binding free energy (BET-seq); higher = weaker binding; conditions: reference: library average
T1 sequence: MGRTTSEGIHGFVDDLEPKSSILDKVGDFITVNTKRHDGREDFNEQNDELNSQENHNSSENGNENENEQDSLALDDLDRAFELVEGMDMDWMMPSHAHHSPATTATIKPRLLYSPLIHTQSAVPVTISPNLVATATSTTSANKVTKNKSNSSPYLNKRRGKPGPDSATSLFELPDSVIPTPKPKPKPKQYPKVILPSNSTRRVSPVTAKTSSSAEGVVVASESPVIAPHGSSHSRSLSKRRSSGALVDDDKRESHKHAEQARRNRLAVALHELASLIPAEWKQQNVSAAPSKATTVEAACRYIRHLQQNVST

Sequence | relative binding free energy
GCTGGCACGTGGGTGT | -0.16 kcal/mol
CTTGTCACGTGTGCTA | 0.16 kcal/mol
GCTGGCACGTGAGGGA | 0.18 kcal/mol
GGTGACACGTGATTGT | 0.28 kcal/mol
GGTTCCACGTGGGGAA | -0.16 kcal/mol
ATAGTCACGTGAGTGT | 0.3 kcal/mol
TTCGTCACGTGAAGGA | 0.24 kcal/mol
ATGAACACGTGTGTGA | -0.05 kcal/mol
AAGTGCACGTGAGGCG | 0.15 kcal/mol
GAAGGCACGTGCTGGG | -0.24 kcal/mol
GGATTCACGTGTTTTG | 0.51 kcal/mol
TCTGGCACGTGGTGTG | -0.19 kcal/mol
GGAGTCACGTGAAGTT | 0.42 kcal/mol
AGAATCACGTGAGGTA | 0.43 kcal/mol
GGAGACACGTGATGTT | 0.2 kcal/mol
AGGGGCACGTGAGAAA | 0.33 kcal/mol
TTGGGCACGTGCCGCT | -0.15 kcal/mol
TGTAGCACGTGGTGCT | -0.14 kcal/mol
AAGGGCACGTGAGTGA | 0.23 kcal/mol
GTTGTCACGTGTGACT | 0.3 kcal/mol
GATGTCACGTGATCGG | 0.21 kcal/mol
GGGTCCACGTGGGTCT | -0.15 kcal/mol
ATTCTCACGTGGGGTT | 0.02 kcal/mol

Sequence | relative binding free energy
TAGTTCACGTGGCGAT | 0.21 kcal/mol
CTATTCACGTGGTGTT | 0.1 kcal/mol
GGAGGCACGTGTCAGG | -0.22 kcal/mol
GGAAGCACGTGGACGG | -0.12 kcal/mol
TGTGTCACGTGGTCTT | 0.07 kcal/mol
GGGGTCACGTGTATGC | 0.12 kcal/mol
GGCATCACGTGAGTTG | 0.38 kcal/mol
CGAATCACGTGGAGTG | 0.12 kcal/mol
GAAGGCACGTGTTATG | -0.11 kcal/mol
GGGGCCACGTGTGTGA | 0 kcal/mol
TGTGTCACGTGATCTG | 0.03 kcal/mol
GATTTCACGTGCGGTA | 0.37 kcal/mol
GGGTCCACGTGAGTAT | 0.17 kcal/mol
GCGCACACGTGGGGGT | -0.03 kcal/mol
TATTTCACGTGGCATT | 0.11 kcal/mol
CTGTCCACGTGGTAGT | -0.14 kcal/mol
TTTCTCACGTGGACGT | 0.2 kcal/mol
GTAAACACGTGTGTTG | 0.08 kcal/mol
TTAGGCACGTGTCCGG | -0.04 kcal/mol
TATTTCACGTGTGTTT | 0.29 kcal/mol
AGTTTCACGTGCTTAG | 0.09 kcal/mol
GAGTACACGTGGTGGG | 0.07 kcal/mol
TATTTCACGTGGCGTT | 0.2 kcal/mol

Sequence | relative binding free energy
ATGGGCACGTGTAGAG | -0.06 kcal/mol
CGGATCACGTGGGAGG | -0.05 kcal/mol
TGTTTCACGTGGTATT | 0.16 kcal/mol
GCGGCCACGTGGGCGT | -0.17 kcal/mol
CAAGGCACGTGGTTGA | -0.06 kcal/mol
TAGTGCACGTGAGTGT | 0.19 kcal/mol
ACATGCACGTGGTTTA | 0.01 kcal/mol
GGCTACACGTGTGGGA | 0.18 kcal/mol
GGAGGCACGTGTAGTC | -0.09 kcal/mol
GGGAGCACGTGACTGG | -0.13 kcal/mol
GGGGGCACGTGAGAGT | 0.19 kcal/mol
TCAGGCACGTGAGAGG | 0.19 kcal/mol
GTCGTCACGTGGTCTG | 0.03 kcal/mol
TGGGACACGTGTTAAG | 0.06 kcal/mol
TTGCTCACGTGGACGG | 0.35 kcal/mol
TGAGGCACGTGTAAGT | 0.07 kcal/mol
TATATCACGTGAGTCG | 0.33 kcal/mol
GGACTCACGTGTGCGG | 0.28 kcal/mol
AGCGGCACGTGAGATG | 0.29 kcal/mol
GTGGACACGTGTGGGC | 0.08 kcal/mol
TGACTCACGTGTGGTG | 0.28 kcal/mol
CAGAGCACGTGGGGCT | -0.27 kcal/mol
GGAAGCACGTGAGTCG | 0.27 kcal/mol

Sequence | relative binding free energy
GATTACACGTGTTTTG | 0.2 kcal/mol
GTCGGCACGTGTAGGT | 0.01 kcal/mol
GGGCGCACGTGAGGCT | 0.1 kcal/mol
TTACTCACGTGTGAGG | 0.21 kcal/mol
TCGTTCACGTGTAGCG | 0.26 kcal/mol
ACGGGCACGTGGGGGG | -0.22 kcal/mol
GAATACACGTGTGGGC | 0.11 kcal/mol
CGGGTCACGTGCTAGG | 0.04 kcal/mol
TGTCTCACGTGGATTA | 0.2 kcal/mol
TGGTGCACGTGCAAGA | 0.1 kcal/mol
TTTTTCACGTGAGAGA | 0.35 kcal/mol
ATAAACACGTGGTGGA | -0.08 kcal/mol
ATAGTCACGTGAGTGC | 0.38 kcal/mol
AAGATCACGTGAGGTG | 0.38 kcal/mol
GTTCCCACGTGGGTGT | -0.21 kcal/mol
CGTAACACGTGTATTT | 0.1 kcal/mol
TTTGACACGTGTGCCG | 0.14 kcal/mol
GTAGTCACGTGTGCGG | 0.12 kcal/mol
CGGCTCACGTGGAGTT | 0.18 kcal/mol
TATTTCACGTGAATAT | 0.22 kcal/mol
CGGCACACGTGTTGGG | 0.07 kcal/mol
TAAGTCACGTGAAAGA | 0.3 kcal/mol
TTTATCACGTGCGGGC | 0.11 kcal/mol

Sequence | relative binding free energy
ATATGCACGTGGCAGG | -0.25 kcal/mol
GTCCTCACGTGTGTTG | 0.16 kcal/mol
GTAATCACGTGCTGTT | 0.12 kcal/mol
TATTACACGTGTGAGA | 0.27 kcal/mol
TGTGACACGTGAGCTG | 0.19 kcal/mol
CTTTGCACGTGGGAAT | -0.1 kcal/mol
AAGTACACGTGGGGCG | -0.11 kcal/mol
TGTTTCACGTGGTAGT | 0.31 kcal/mol
CATCACACGTGTGGGT | 0.26 kcal/mol
TCGACCACGTGTGGGG | -0.12 kcal/mol
GATTTCACGTGCGAGG | 0.29 kcal/mol
CGCGGCACGTGACGGT | 0.08 kcal/mol
GCTAGCACGTGGGGAT | -0.07 kcal/mol
AATGGCACGTGGGGTT | -0.13 kcal/mol
GTAGCCACGTGGAGTT | -0.04 kcal/mol
AAAATCACGTGTTTAT | 0.21 kcal/mol
AGTCTCACGTGTTAGT | 0.17 kcal/mol
CAGGGCACGTGTGCTG | -0.13 kcal/mol
GGTCGCACGTGGATGT | 0.05 kcal/mol
TAGAGCACGTGGTGGA | -0.15 kcal/mol
TTTCTCACGTGGTGAG | 0.23 kcal/mol
TGGATCACGTGGATAA | 0.3 kcal/mol
TGGATCACGTGCGTGG | -0.05 kcal/mol
